Assay results: article PMC5954140
Results are given in words; binding and its absence hold for the method and conditions named. For some assays here: Binding seen in cells or lysates may run through a third protein. Some results given as binding are weak or reduced against the parent protein; the word gives no strength. Tags and fused reporters may be left off the sequences shown. Blank lines part the entries; values can stand above or below the binder they belong to.

Amino acid sequences for entries named in this document (tags omitted).
UniProt Q9UJU2: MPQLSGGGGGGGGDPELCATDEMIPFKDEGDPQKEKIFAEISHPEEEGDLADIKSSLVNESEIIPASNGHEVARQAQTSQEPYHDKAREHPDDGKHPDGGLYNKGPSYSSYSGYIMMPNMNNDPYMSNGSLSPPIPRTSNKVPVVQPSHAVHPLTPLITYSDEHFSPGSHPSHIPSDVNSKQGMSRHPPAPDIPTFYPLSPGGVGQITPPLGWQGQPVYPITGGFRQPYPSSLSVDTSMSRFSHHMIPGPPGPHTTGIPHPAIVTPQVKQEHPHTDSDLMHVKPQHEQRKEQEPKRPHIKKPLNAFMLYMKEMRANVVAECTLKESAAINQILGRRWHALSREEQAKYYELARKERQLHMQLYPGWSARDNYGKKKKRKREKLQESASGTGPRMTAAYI
UniProt Q9NQB0: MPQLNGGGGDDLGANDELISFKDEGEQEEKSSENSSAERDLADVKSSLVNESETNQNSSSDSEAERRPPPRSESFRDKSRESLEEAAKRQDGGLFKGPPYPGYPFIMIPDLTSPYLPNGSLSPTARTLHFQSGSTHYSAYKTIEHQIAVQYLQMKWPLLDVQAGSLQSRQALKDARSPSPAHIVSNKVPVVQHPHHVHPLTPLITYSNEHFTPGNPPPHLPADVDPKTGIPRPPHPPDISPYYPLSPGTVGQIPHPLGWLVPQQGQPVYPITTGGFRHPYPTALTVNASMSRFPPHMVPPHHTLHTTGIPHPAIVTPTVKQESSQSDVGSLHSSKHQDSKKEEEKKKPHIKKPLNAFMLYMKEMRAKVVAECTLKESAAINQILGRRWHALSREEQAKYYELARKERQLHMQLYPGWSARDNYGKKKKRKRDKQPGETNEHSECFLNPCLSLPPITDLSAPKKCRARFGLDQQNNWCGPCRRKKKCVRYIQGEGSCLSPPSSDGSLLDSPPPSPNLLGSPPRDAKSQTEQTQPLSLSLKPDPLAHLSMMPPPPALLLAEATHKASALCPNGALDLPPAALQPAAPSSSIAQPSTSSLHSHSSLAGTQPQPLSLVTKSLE
UniProt P35222: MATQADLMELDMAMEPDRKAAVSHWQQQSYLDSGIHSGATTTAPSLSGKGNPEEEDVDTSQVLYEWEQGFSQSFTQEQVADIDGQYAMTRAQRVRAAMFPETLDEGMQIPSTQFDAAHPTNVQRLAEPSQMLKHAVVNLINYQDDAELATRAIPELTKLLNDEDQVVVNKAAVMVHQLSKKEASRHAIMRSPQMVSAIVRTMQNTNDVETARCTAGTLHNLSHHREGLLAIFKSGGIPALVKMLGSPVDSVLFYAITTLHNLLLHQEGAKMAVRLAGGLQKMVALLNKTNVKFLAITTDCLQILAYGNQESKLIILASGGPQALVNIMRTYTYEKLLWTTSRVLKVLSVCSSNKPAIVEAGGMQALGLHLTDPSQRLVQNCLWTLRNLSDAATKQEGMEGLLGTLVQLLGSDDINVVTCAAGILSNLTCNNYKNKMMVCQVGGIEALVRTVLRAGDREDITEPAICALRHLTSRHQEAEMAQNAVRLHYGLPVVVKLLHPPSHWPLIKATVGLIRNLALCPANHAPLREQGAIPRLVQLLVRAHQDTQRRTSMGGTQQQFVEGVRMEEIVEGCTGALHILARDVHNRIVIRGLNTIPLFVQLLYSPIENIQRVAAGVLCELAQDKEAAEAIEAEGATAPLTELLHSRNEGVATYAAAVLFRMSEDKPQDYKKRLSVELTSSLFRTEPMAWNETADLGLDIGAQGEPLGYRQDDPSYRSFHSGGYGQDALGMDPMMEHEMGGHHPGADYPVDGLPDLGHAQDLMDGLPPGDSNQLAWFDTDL

Assays:
[1] = biological target: LEF1 (human (endogenous in MKN28)) (UniProt Q9UJU2); assay: co-IP; MKN28 cells; lysates in NP-40 lysis buffer (10% glycerol, 0.5% NP-40, 125 mM NaCl, 1 mM EDTA, 20 mM Tris-Cl pH 8.0); precipitated with the indicated antibodies on Dynabeads Protein G overnight at 4 °C; detected with Flag antibody
[2] = biological target: TCF4/TCF7L2 (human (endogenous in MKN28)) (UniProt Q9NQB0); assay: as above
[3] = biological target: β-catenin (CTNNB1) (human (endogenous in MKN28)) (UniProt P35222); assay: as above
mCherry-LEF1 = mCherry-LEF1 (UniProt Q9UJU2); assay: dual-color fluorescence cross-correlation spectroscopy (FCCS); live cells co-expressing GFP- and mCherry-tagged proteins; measured in the nuclei at 25 °C; relative cross-correlation amplitude; cells co-expressing GFP and mCherry as negative control
mCherry-TCF4 = mCherry-TCF4 (UniProt Q9NQB0); assay: as above

- binding [1]: binds
- binding [2]: binds
- binding [3]: no binding
B1: Flag-ESRRG (estrogen-related receptor gamma) (protein, UniProt P62508 1-458)
chain: MDSVELCLPESFSLHYEEELLCRMSNKDRHIDSSCSSFIKTEPSSPASLTDSVNHHSPGGSSDASGSYSSTMNGHQNGLDSPPLYPSAPILGGSGPVRKLYDDCSSTIVEDPQTKCEYMLNSMPKRLCLVCGDIASGYHYGVASCEACKAFFKRTIQGNIEYSCPATNECEITKRRRKSCQACRFMKCLKVGMLKEGVRLDRVRGGRQKYKRRIDAENSPYLNPQLVQPAKKPYNKIVSHLLVAEPEKIYAMPDPTVPDSDIKALTTLCDLADRELVVIIGWAKHIPGFSTLSLADQMSLLQSAWMEILILGVVYRSLSFEDELVYADDYIMDEDQSKLAGLLDLNNAILQLVKKYKSMKLEKEEFVTLKAIALANSDSMHIEDVEAVQKLQDVLHEALQDYEAGQHMEDPRRAGKMLMTLPLLRQTSTKAVQHFYNIKLEGKVPMHKLFLEMLEAKV

- binding (mCherry-LEF1): binds
- binding (mCherry-TCF4): binds
B2: GFP-ESRRG (protein, UniProt P62508 1-458)
chain: B1 chain
